Measured values: PubChem BioAssay AID686978 (National Center for Advancing Translational Sciences (NCATS), 2013)
Among all 420,000 compounds or so, about 64,000 (15%) were called active. The inconclusive results got no clear call from the source; some entries with a clear call stand among them for comparison. The call rests on the fitted dose curve; in most records, active means well fitted inhibition curve with a large enough effect; inconclusive means small, poorly fitted or top-dose-only effect; inactive means flat fitted curve, though single readings scatter. No potency is given beside an inconclusive call; the fits are too rough.

Assay: qHTS for Inhibitors of human tyrosyl-DNA phosphodiesterase 1 (TDP1): qHTS in cells in absence of CPT; further: nearly all actives have a fitted effect of over 55% in size
Settings: DT40 Tdp1-/- hTDP1 cells, no CPT, ATP luminescence, 48 h; activity change, negative = growth inhibition: at 46.2 µM (top of the series) unless noted
How it was run: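 DT40 Tdp1-/-;hTDP1 cells, no CPT (DMSO vehicle only), 400 cells/well; compounds pin-transferred; ≥48 hr, 37 °C; CellTiter-Glo 30 min RT dark, luminescence read.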
On the % scale 0 is the no-effect control and ±100 the full control effect; potency means the concentration at half of the fitted maximal effect; tags describe the fitted curve by direction and shape.

Question: Which Potency does the source give for `COc1cc(CN2CCC(C(=O)NC(c3ccccc3)c3ccsc3)CC2)cc(OC)c1` (centres undefined) here?
Answer: active: 20.6 µM

Question: For `O=C(Nc1ccc(N2C(=O)C3C4C=CC(C4)C3C2=O)cc1)Nc1nnc(C(F)(F)F)s1` (centres undefined), which Potency is on record?
Answer: inconclusive [inhibitor, partial curve, poor fit]

Question: For `COc1ccc(NC(=O)CSCC(=O)N(C)CCOc2ccc(Cl)cc2)cc1`, which Potency is on record?
Answer: inconclusive [inhibitor, single point]

Question: For `CN(C)c1ccc(-n2cccc2/C=C/[N+](=O)[O-])cc1`, which Potency is on record?
Answer: active: 4.11 µM

Question: For `COc1cccc(-n2nnnc2SCC(=O)NC2CCCCC2)c1`, which activity change, negative = growth inhibition is on record?
Answer: inconclusive: -35.2% [inhibitor]

Question: With `CC1CCC2(CC1)NC(=O)N(CC(=O)Nc1cccc(S(=O)(=O)N3CCCC3)c1)C2=O` (centres undefined) as the molecule, how does the Potency read?
Answer: inconclusive [inhibitor, single point]

Question: With `O=C(Nc1ccc2ncccc2c1)c1ccccc1Br` as the molecule, how does the Potency read?
Answer: inconclusive [inhibitor, single point]

Question: For `CCOC(=O)c1ccc(S(=O)(=O)Nc2cc(S(=O)(=O)Nc3ccc(OC)cc3)ccc2O)cc1`, which “activity change, negative = growth inhibition” value is on record?
Answer: inactive: -3.42%

Question: Which Potency does the source give for `Cc1noc(C)c1COc1ccc(C(=O)NCCc2ccc(S(N)(=O)=O)cc2)cc1` here?
Answer: inconclusive [inhibitor, single point]

Question: For `CCCCCn1c(=O)[nH]c2cc(C(=O)NCCCN3CCC(C)CC3)ccc2c1=O`, which Potency is on record?
Answer: inconclusive [inhibitor, partial curve]

Question: With `COc1ccccc1C1C(C(=O)Nc2ccccc2)=C(C)Nc2nc(-c3ccccc3)nn21` (centres undefined) as the molecule, how does the Potency read?
Answer: inconclusive [inhibitor, single point]

Question: Which “activity change, negative = growth inhibition” value does the source give for `COCCNC(=S)Nc1cc2oc3ccccc3c2cc1OC` here?
Answer: inactive: 6.57%

Question: Which “activity change, negative = growth inhibition” value does the source give for `CC(C)NC(=O)c1ccccc1NC(=O)Cc1ccc([N+](=O)[O-])cc1` here?
Answer: inactive: 1.04%

Question: With `Cc1ccc2c(c1)C1CN(C)CCC1N2S(=O)(=O)c1ccc(Oc2ccc([N+](=O)[O-])cc2)cc1` (centres undefined) as the molecule, how does the Potency read?
Answer: inconclusive [inhibitor, single point]

Question: With `c1ccc(-c2ccccc2OCCCCN2CCCCC2)cc1` as the molecule, how does the Potency read?
Answer: active: 16.4 µM

Question: With `CCOc1ccccc1-c1nc2c([nH]1)c(=O)n(C)c(=O)n2C` as the molecule, how does the Potency read?
Answer: inconclusive [inhibitor, single point]

Question: With `COc1ccccc1-c1nnc(-c2ccc(N3CCOCC3)cc2)o1` as the molecule, how does the Potency read?
Answer: active: 20.6 µM

Question: Which Potency does the source give for `COc1ccccc1N1CCN(Cc2nc(-c3cc(OC)c(OC)c(OC)c3)no2)CC1` here?
Answer: active: 18.4 µM

Question: With `CC(C)(C)c1ccc(NC(=O)c2ccc(=O)[nH]n2)cc1` as the molecule, how does the “activity change, negative = growth inhibition” value read?
Answer: inactive: -33%

Question: With `CC(=O)Nc1ccc(NC(=O)C2CC(=O)N(c3cccc(Cl)c3)C2)cc1` (centres undefined) as the molecule, how does the Potency read?
Answer: inconclusive [inhibitor, single point]

Question: With `CC(=O)N1CCc2cc(S(=O)(=O)NC(Cc3ccccc3)C(=O)Nc3cc(C)cc(C)c3)ccc21` (centres undefined) as the molecule, how does the Potency read?
Answer: inconclusive [inhibitor, single point]

Question: Which “activity change, negative = growth inhibition” value does the source give for `O=C1CC(N2CCSCC2)C(=O)N1c1cccc(Cl)c1` (centres undefined) here?
Answer: inactive: 20.9%

Question: With `COc1ccc(CCN2C(=O)CN(C3CCCCCC3)C(=O)C2c2ccc(Cl)cc2)cc1OC` (centres undefined) as the molecule, how does the Potency read?
Answer: active: 18.4 µM

Question: For `COc1cc(/C=N/NC(N)=S)ccc1OCC(=O)Nc1ccc(C)c(C)c1`, which Potency is on record?
Answer: inconclusive [inhibitor, full curve, poor fit]

Question: For `CCOC(=O)C1c2cccc(O)c2CCN1C(C)=O` (centres undefined), which “activity change, negative = growth inhibition” value is on record?
Answer: inactive: -2.59%

Question: Which “activity change, negative = growth inhibition” value does the source give for `c1ccc2c(c1)oc1c(Nc3ccc4c(c3)OCO4)ncnc12` here?
Answer: inactive: -20.6%

Question: Which “activity change, negative = growth inhibition” value does the source give for `CCOc1ccccc1CNS(=O)(=O)c1ccc2c(c1)oc(=O)n2C` here?
Answer: inactive: -5.39%

Question: For `CC1Cc2ccccc2N1C(=O)CSc1nnc(CNc2ccccc2)o1` (centres undefined), which activity change, negative = growth inhibition is on record?
Answer: inconclusive: -38% [inhibitor]

Question: Which Potency does the source give for `CCN(Cc1ccccc1)C(=O)c1cn(-c2cccc(OC)c2)c(=O)c2ccccc12` here?
Answer: inconclusive [inhibitor, single point]

Question: Which Potency does the source give for `CSC1=C(C#N)C(=O)NC(c2ccc(Cl)cc2)S1` (centres undefined) here?
Answer: active: 16.4 µM

Question: Which Potency does the source give for `Cc1ccc(NC(=O)CSc2nc3n[nH]c(C)c3c(=N)n2-c2ccccc2C)cc1C` here?
Answer: inconclusive [inhibitor, partial curve]

Question: Which Potency does the source give for `CN(C)c1cc[n+](CC(=O)Nc2cc(C(F)(F)F)ccc2Cl)cc1` here?
Answer: active: 8.2 µM

Question: Which Potency does the source give for `CCCc1cc(=O)[nH]c(SCC(=O)N2CCN(S(=O)(=O)c3ccc(C)cc3C)CC2)n1` here?
Answer: inconclusive [inhibitor, single point]

Question: For `COc1ccc(-c2cccc(-c3cc(=O)oc4cc(OC)c(OC)c(OC)c34)c2)cc1`, which Potency is on record?
Answer: inconclusive [inhibitor, single point]

Question: For `CCCN1CCN(C(=S)Nc2sc(CC)cc2C(=O)OC)CC1`, which Potency is on record?
Answer: inconclusive [inhibitor, single point]

Question: For `Cc1ccc(SCc2nc3ccccc3n2CC(=O)Nc2ccccc2)cc1`, which Potency is on record?
Answer: inconclusive [inhibitor, single point]

Question: For `Clc1ccc(CNc2ncnc3[nH]ncc23)cc1Cl`, which Potency is on record?
Answer: inconclusive [inhibitor, single point]

Question: Which “activity change, negative = growth inhibition” value does the source give for `Cc1cccc(C)c1OCC(=O)Nc1ccc(N2CCOCC2)cc1` here?
Answer: inactive: -19.6%

Question: With `CCOc1ccc(N2CC(C(=O)NCc3cccc(C)c3)CC2=O)cc1` (centres undefined) as the molecule, how does the Potency read?
Answer: inconclusive [inhibitor, single point]

Question: With `CC(=O)NCCNc1nc2cc(-c3cscc3C)sc2c(=O)n1C` as the molecule, how does the Potency read?
Answer: inconclusive [inhibitor, single point]

Question: Which Potency does the source give for `O=C(Cn1ncc2c3ccccc3n(Cc3ccccc3)c2c1=O)NCCCN1CCCCC1` here?
Answer: inconclusive [inhibitor, single point]

Question: Which “activity change, negative = growth inhibition” value does the source give for `Cc1c(NC(=O)C2CCCNC2=O)c(=O)n(-c2ccccc2)n1C` (centres undefined) here?
Answer: inactive: 0.802%

Question: With `COc1cccc(N2C(=O)[C@H]3C(C(=O)c4cnccn4)=NN[C@H]3C2=O)c1` as the molecule, how does the activity change, negative = growth inhibition read?
Answer: inconclusive: -33.2% [inhibitor]

Question: For `O=C(Nc1ccc(Cl)cc1)c1ccsn1`, which “activity change, negative = growth inhibition” value is on record?
Answer: inactive: -26%

Question: With `CCOC(=O)c1cn2nc(Oc3cccc(C(F)(F)F)c3)ccc2n1` as the molecule, how does the Potency read?
Answer: inconclusive [inhibitor, single point]

Question: With `C=CCN(CC=C)C(=O)C(=O)c1cc(C)n(-c2ccc([N+](=O)[O-])cc2)c1C` as the molecule, how does the Potency read?
Answer: active: 14.6 µM

Question: Which Potency does the source give for `CCCn1c(N)c(C(=O)CSc2nc3ccccc3c(=O)n2-c2ccc(OC)cc2)c(=O)[nH]c1=O` here?
Answer: inconclusive [inhibitor, single point]

Question: For `CC(C)[C@H](NC(=O)c1ccccc1)C(=O)OCC(=O)/C=C1/N(C)c2ccccc2C1(C)C`, which Potency is on record?
Answer: active: 8.2 µM

Question: Which Potency does the source give for `COc1ccc(C2OC(=O)CC2C(=O)NCc2ccc(F)cc2)cc1OC` (centres undefined) here?
Answer: inconclusive [inhibitor, partial curve, poor fit]

Question: With `O=C(c1ccco1)N1CCN(C(=O)C23CC4CC(CC(C4)C2)C3)CC1` as the molecule, how does the Potency read?
Answer: inconclusive [inhibitor, partial curve, poor fit]

Question: With `CC(C)[C@H](NS(=O)(=O)c1ccccc1)C(=O)Nc1nccs1` as the molecule, how does the “activity change, negative = growth inhibition” value read?
Answer: inactive: -26.4%

Question: For `CN(C)c1ccc(/C=C2\C=Cc3cc([N+](=O)[O-])ccc32)cc1`, which Potency is on record?
Answer: inconclusive [inhibitor, partial curve]

Question: Which “activity change, negative = growth inhibition” value does the source give for `COc1ccc(CCNC(=O)C2CC(c3ccccc3F)=NO2)cc1` (centres undefined) here?
Answer: inactive: -18.1%

Question: For `C/C(=N/NC(=O)c1ccc(C(C)(C)C)cc1)c1ccccn1`, which Potency is on record?
Answer: active: 0.231 µM

Question: With `Cc1ccc(C(=O)NCCN2C3=NC[C@H](C(C)C)N3C[C@H]2Cc2ccc(O)cc2)cc1Br` as the molecule, how does the Potency read?
Answer: active: 10.3 µM

Question: Which Potency does the source give for `Cc1cc2nc(-c3ccc(Cl)cc3)c(CC3CCCCC3)n2c(C)c1Br` here?
Answer: inconclusive [inhibitor, single point]

Question: Which “activity change, negative = growth inhibition” value does the source give for `C=C(C)c1sc(-c2ccc(Cl)cc2)nc1C` here?
Answer: inactive: -26.2%

Question: Which Potency does the source give for `CCN(CC(=O)N1CCC(C)CC1)S(=O)(=O)c1ccc(C)cc1` here?
Answer: inconclusive [inhibitor, partial curve]

Question: For `COc1cc(C2C3=C(Nc4nc(N)[nH]c(=O)c42)c2ccccc2C3=O)ccc1O` (centres undefined), which “activity change, negative = growth inhibition” value is on record?
Answer: inactive: -15%

Question: For `COc1ccc(S(=O)(=O)N2CCOCC2)cc1NC(=O)Cc1sc(C)nc1-c1ccc(F)cc1`, which “activity change, negative = growth inhibition” value is on record?
Answer: inactive: -28.5%

Question: Which “activity change, negative = growth inhibition” value does the source give for `COc1ccc(-c2cc(C(=O)Oc3ccc(C#N)cc3)no2)cc1` here?
Answer: inactive: -20%

Question: Which Potency does the source give for `COc1ccccc1N(CCC#N)C(=S)Nc1ccc(S(=O)(=O)N2CCOCC2)cc1` here?
Answer: inconclusive [inhibitor, partial curve, poor fit]

Question: With `CN(C)C=NC(=O)/C(C#N)=C1\CCc2ccccc2N1` as the molecule, how does the Potency read?
Answer: inconclusive [inhibitor, single point]

Question: With `O=C1NC[C@H](CCCCN2C[C@H](Cc3ccc(O)cc3)N(Cc3ccccc3)C(=O)C2=O)N(CCc2ccccc2)C1=O` as the molecule, how does the “activity change, negative = growth inhibition” value read?
Answer: inactive: -3.09%

Question: For `Clc1cccc(CN2CCSCC2)c1Cl`, which “activity change, negative = growth inhibition” value is on record?
Answer: inactive: -3.03%

Question: Which “activity change, negative = growth inhibition” value does the source give for `O=C(CNC(=O)c1ccc(Br)o1)NCCc1ccc(F)cc1` here?
Answer: inactive: 11.2%

Question: Which Potency does the source give for `O=C(C[n+]1ccc2ccccc2c1)c1ccc(NC(=O)c2ccccc2)cc1` here?
Answer: active: 7.31 µM

Question: With `O=C(Nc1ccc(Cl)c(C(F)(F)F)c1)c1ccncc1` as the molecule, how does the Potency read?
Answer: active: 14.6 µM

Question: For `CCOc1ccc(-n2ccnc(SCC(=O)Nc3cccc(OC)c3)c2=O)cc1`, which Potency is on record?
Answer: inconclusive [inhibitor, partial curve]

Question: Which Potency does the source give for `COc1cccc(CNCc2ccc(SC)cc2)c1OC` here?
Answer: inconclusive [inhibitor, single point]

Question: With `N#CCC(=O)N/N=C\c1cc(Br)ccc1OC/C=C/c1ccccc1` as the molecule, how does the Potency read?
Answer: active: 25.9 µM

Question: With `Cc1noc(NS(=O)(=O)c2ccc(NC(=O)c3cccc(S(=O)(=O)N(C)c4ccccc4)c3)cc2)c1C` as the molecule, how does the “activity change, negative = growth inhibition” value read?
Answer: inactive: 11%

Question: Which activity change, negative = growth inhibition does the source give for `NN=C1C(=O)c2cccc3cccc1c23` here?
Answer: inconclusive: -30.3% [inhibitor]

Question: Which Potency does the source give for `CCc1nn(-c2ccccc2)c2c1-c1cc(OC)c(OC)cc1C1(N2)C(=O)Nc2ccccc21` (centres undefined) here?
Answer: inconclusive [inhibitor, partial curve, poor fit]
